According to the supplement of paper PMC12217912:
This is one part of the list. Sequences were assembled here from the parent chain. Inactive controls read about 0.05.

B1: TEV protease; numbered along this chain (parent)
chain: MGESLFKGPRDYNPISSSICHLTNESDGHTTSLYGIGFGPFIITNKHLFRRNNGTLVVQSLHGVFKVKDTTTLQQHLVDGRDMIIIRMPKDFPPFPQKLKFREPQREERICLVTTNFQTKSMSSMVSDTSCTFPSGDGIFWKHWIQTKDGQCGSPLVSTRDGFIVGIHSASNFTNTNNYFTSVPKNFMELLTNQEAQQWVSGWRLNADSVLWGGHKVFMVKPEEPFQPVKEATQL

Variants of: B1
Assay: raw area under fraction-flipped curve 0-4 h after induction (AUC4h, not background-subtracted), DNA-recorder readout of cleavage of the substrate (dimensionless); higher = more cleavage of the substrate by the protease variant
Details: temperature: 34 °C; time window: 0-4 h after rhamnose induction
Procedure: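 In vivo DNA recorder in E. coli TOP10(DE3) ΔrhaA at 34 °C. Each TEVp single-site mutant (parent TEVp 0) is paired with a single-site variant of the 7-mer TEVs (canonical ENLYFQ|S). The substrate sits between flexible linkers in a Bxb1-sfGFP-TEVs-SsrA fusion, so cleavage stabilises Bxb1 and speeds flipping of a recombination array, read by NGS. The value is the raw area under the fraction-flipped curve over 0-4 h after rhamnose induction (AUC4h), with ≥20 reads per time point. It is not background-subtracted; inactive controls average about 0.047.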
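Also: Bxb1 expression induced with 0.2% (w/v) L-rhamnose at OD600 near 0.5, cultures sampled hourly, flipped fraction per protease–substrate barcode pair counted by paired-end Illumina sequencing.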

P89H
area with substrate CNLYFQS: 0.0687
area with substrate DNLYFQS: 0.0592
area with substrate FNLYFQS: 0.124
area with substrate GNLYFQS: 0.0588
area with substrate HNLYFQS: 0.0765
area with substrate INLYFQS: 0.0608
area with substrate LNLYFQS: 0.0754
area with substrate PNLYFQS: 0.0511
area with substrate QNLYFQS: 0.0703
area with substrate TNLYFQS: 0.0746
area with substrate VNLYFQS: 0.0513
area with substrate WNLYFQS: 0.0514
area with substrate YNLYFQS: 0.0583

D91F
area with substrate CNLYFQS: 0.054
area with substrate DNLYFQS: 0.0502
area with substrate FNLYFQS: 0.061
area with substrate GNLYFQS: 0.0587
area with substrate HNLYFQS: 0.0555
area with substrate KNLYFQS: 0.0568
area with substrate LNLYFQS: 0.0658
area with substrate MNLYFQS: 0.0663
area with substrate PNLYFQS: 0.0726
area with substrate QNLYFQS: 0.0618
area with substrate SNLYFQS: 0.0655
area with substrate TNLYFQS: 0.0665
area with substrate WNLYFQS: 0.0484

D91Q
area with substrate CNLYFQS: 0.0618
area with substrate DNLYFQS: 0.0673
area with substrate FNLYFQS: 0.0668
area with substrate KNLYFQS: 0.0576
area with substrate SNLYFQS: 0.0632
area with substrate TNLYFQS: 0.0592
area with substrate YNLYFQS: 0.0651

D91W
area with substrate CNLYFQS: 0.0721
area with substrate DNLYFQS: 0.106
area with substrate FNLYFQS: 0.0434
area with substrate GNLYFQS: 0.0676
area with substrate HNLYFQS: 0.041
area with substrate INLYFQS: 0.054
area with substrate KNLYFQS: 0.0858
area with substrate LNLYFQS: 0.0634
area with substrate NNLYFQS: 0.0539
area with substrate PNLYFQS: 0.0708
area with substrate RNLYFQS: 0.0812
area with substrate SNLYFQS: 0.0645
area with substrate VNLYFQS: 0.0578
area with substrate WNLYFQS: 0.0548

F92E
area with substrate CNLYFQS: 0.0588
area with substrate DNLYFQS: 0.0648
area with substrate HNLYFQS: 0.0555
area with substrate INLYFQS: 0.0566
area with substrate LNLYFQS: 0.0417
area with substrate NNLYFQS: 0.0516
area with substrate PNLYFQS: 0.0555
area with substrate SNLYFQS: 0.067
area with substrate TNLYFQS: 0.0554
area with substrate VNLYFQS: 0.0577
area with substrate WNLYFQS: 0.0726

F92Y
area with substrate CNLYFQS: 0.0646
area with substrate DNLYFQS: 0.0889
area with substrate GNLYFQS: 0.0569
area with substrate HNLYFQS: 0.0532
area with substrate PNLYFQS: 0.0569
area with substrate SNLYFQS: 0.0691
area with substrate TNLYFQS: 0.0788
area with substrate WNLYFQS: 0.0794

P93A
area with substrate CNLYFQS: 0.0818
area with substrate DNLYFQS: 0.0542
area with substrate FNLYFQS: 0.056
area with substrate INLYFQS: 0.0641
area with substrate KNLYFQS: 0.0631
area with substrate PNLYFQS: 0.0632
area with substrate RNLYFQS: 0.0389
area with substrate SNLYFQS: 0.0637
area with substrate TNLYFQS: 0.0691
area with substrate YNLYFQS: 0.0658

K98G
area with substrate CNLYFQS: 0.0687
area with substrate DNLYFQS: 0.0745
area with substrate FNLYFQS: 0.0867
area with substrate GNLYFQS: 0.0885
area with substrate HNLYFQS: 0.0572
area with substrate INLYFQS: 0.0529
area with substrate MNLYFQS: 0.075
area with substrate NNLYFQS: 0.104
area with substrate PNLYFQS: 0.0706
area with substrate TNLYFQS: 0.0716
area with substrate WNLYFQS: 0.0683
area with substrate YNLYFQS: 0.0751
